# Laboratory results: the supplement of paper PMC8728848
# Some of the results follow.
# Columns and labels:
# Assay in all cases: glycan array binding signal (z-score within array); higher = stronger binding
# Conditions in all cases: glycan notation: IUPAC condensed, linker removed
# [1] = biological target: Neu5Ac(a2-3)Gal(b1-3)GlcNAc(b1-6)GalNAc
# Procedure, shortened: (§1)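 Arrays were curated from the Consortium for Functional Glycomics database, 3228 in total, and kept only where the protein sequence was available. Binding is expressed as a within-array Z-score. This score was averaged across arrays of the same protein sequence at different concentrations or buffers and across linkers, and negative values can be read as non-binding.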
# [2] = biological target: Neu5Ac(a2-3)Gal(b1-3)GlcNAc6S
# Procedure, shortened: as §1
# [3] = biological target: Neu5Ac(a2-3)Gal(b1-3)[Fuc(a1-4)]GlcNAc
# Procedure, shortened: as §1
# [4] = biological target: Neu5Ac(a2-3)Gal(b1-3)[Fuc(a1-4)]GlcNAc(b1-3)Gal(b1-3)[Fuc(a1-4)]GlcNAc
# Procedure, shortened: as §1
# [5] = biological target: Neu5Ac(a2-3)Gal(b1-3)[Fuc(a1-4)]GlcNAc(b1-3)Gal(b1-4)[Fuc(a1-3)]GlcNAc
# Procedure, shortened: as §1
# [6] = biological target: Neu5Ac(a2-3)Gal(b1-3)[GlcNAc(b1-6)]GalNAc
# Procedure, shortened: as §1
# [7] = biological target: Neu5Ac(a2-3)Gal(b1-3)[Neu5Ac(a2-6)]GalNAc
# Procedure, shortened: as §1
# [8] = biological target: Neu5Ac(a2-3)Gal(b1-3)[Neu5Ac(a2-6)]GlcNAc(b1-3)[Fuc(a1-3)[Gal(b1-4)]GlcNAc(b1-6)]Gal(b1-4)Glc
# Procedure, shortened: as §1
# [9] = biological target: Neu5Ac(a2-3)Gal(b1-3)]Neu5Ac(a2-3)Gal(b1-4)]GlcNAc
# Procedure, shortened: as §1
# Neu5Ac(a2-3)Gal(b1-4)Glc = biological target: Neu5Ac(a2-3)Gal(b1-4)Glc
# Procedure, shortened: as §1
# [10] = biological target: Neu5Ac(a2-3)Gal(b1-4)GlcNAc
# Procedure, shortened: as §1
# [11] = biological target: Neu5Ac(a2-3)Gal(b1-4)GlcNAc(b1-2)Man
# Procedure, shortened: as §1
# [12] = biological target: Neu5Ac(a2-3)Gal(b1-4)GlcNAc(b1-2)Man(a1-3)[GlcNAc(b1-4)][Neu5Ac(a2-3)Gal(b1-4)GlcNAc(b1-2)Man(a1-6)]Man(b1-4)GlcNAc(b1-4)GlcNAc
# Procedure, shortened: as §1
# [13] = biological target: Neu5Ac(a2-3)Gal(b1-4)GlcNAc(b1-2)Man(a1-3)[Neu5Ac(a2-3)Gal(b1-4)GlcNAc(b1-2)Man(a1-6)]Man(b1-4)GlcNAc(b1-4)GlcNAc
# Procedure, shortened: as §1
# [14] = biological target: Neu5Ac(a2-3)Gal(b1-4)GlcNAc(b1-2)Man(a1-3)[Neu5Ac(a2-3)Gal(b1-4)GlcNAc(b1-2)Man(a1-6)]Man(b1-4)GlcNAc(b1-4)[Fuc(a1-6)]GlcNAc
# Procedure, shortened: as §1
# [15] = biological target: Neu5Ac(a2-3)Gal(b1-4)GlcNAc(b1-2)Man(a1-3)[Neu5Ac(a2-6)Gal(b1-4)GlcNAc(b1-2)Man(a1-6)]Man(b1-4)GlcNAc(b1-4)GlcNAc
# Procedure, shortened: as §1
# [16] = biological target: Neu5Ac(a2-3)Gal(b1-4)GlcNAc(b1-2)[Neu5Ac(a2-3)Gal(b1-4)GlcNAc(b1-4)]Man(a1-3)[GlcNAc(b1-4)][Neu5Ac(a2-3)Gal(b1-4)GlcNAc(b1-2)[Neu5Ac(a2-3)Gal(b1-4)GlcNAc(b1-6)]Man(a1-6)]Man(b1-4)GlcNAc(b1-4)GlcNAc
# Procedure, shortened: as §1
# [17] = biological target: Neu5Ac(a2-3)Gal(b1-4)GlcNAc(b1-2)[Neu5Ac(a2-3)Gal(b1-4)GlcNAc(b1-4)]Man(a1-3)[GlcNAc(b1-4)][Neu5Ac(a2-3)Gal(b1-4)GlcNAc(b1-4)Man(a1-6)]Man(b1-4)GlcNAc(b1-4)GlcNAc
# Procedure, shortened: as §1
# [18] = biological target: Neu5Ac(a2-3)Gal(b1-4)GlcNAc(b1-2)[Neu5Ac(a2-3)Gal(b1-4)GlcNAc(b1-6)]Man(a1-6)[Neu5Ac(a2-3)Gal(b1-4)GlcNAc(b1-2)Man(a1-3)][GlcNAc(b1-4)]Man(b1-4)GlcNAc(b1-4)GlcNAc
# Procedure, shortened: as §1
# [19] = biological target: Neu5Ac(a2-3)Gal(b1-4)GlcNAc(b1-3)Gal
# Procedure, shortened: as §1
# [20] = biological target: Neu5Ac(a2-3)Gal(b1-4)GlcNAc(b1-3)Gal(b1-3)GlcNAc
# Procedure, shortened: as §1
# [21] = biological target: Neu5Ac(a2-3)Gal(b1-4)GlcNAc(b1-3)Gal(b1-4)GlcNAc
# Procedure, shortened: as §1
binder,measurement,setting,value
"Gal 8 (Mus musculus), Q9JL15 (protein) MGGSHHHHHHGMASMLSLNNLQNIIYNPIIPYVGTITEQLKPGSLIVIRGHVPKDSERFQVDFQLGNSLKPRADVAFHFNPRFKRSSCIVCNTLTQEKWGWEEITYDMPFRKEKSFEIVFMVLKNKFQVAVNGRHVLLYAHRISPEQIDTVGIYGKVNIHSIGFRFSSASALPHTLGDLQSMETSALGLTQINRENIQKPGKLQLSLPFEARLNASMGPGRTVVIKGEVNTNARSFNVDLVAGKTRDIALHLNPRLNVKAFVRNSFLQDAWGEEERNITCFPFSSGMYFEMIIYCDVREFKVAINGVHSLEYKHRFKDLSSIDTLSVDGDIRLLDVRSW",glycan array binding signal (z-score),[1],-0.248
same,glycan array binding signal (z-score),[2],-0.182
same,glycan array binding signal (z-score),[3],-0.546
same,glycan array binding signal (z-score),[4],-0.513
same,glycan array binding signal (z-score),[5],-0.529
same,glycan array binding signal (z-score),[6],-0.2
same,glycan array binding signal (z-score),[7],-0.506
same,glycan array binding signal (z-score),[8],-0.109
same,glycan array binding signal (z-score),[9],-0.539
same,glycan array binding signal (z-score),Neu5Ac(a2-3)Gal(b1-4)Glc,0.211
same,glycan array binding signal (z-score),[10],-0.517
same,glycan array binding signal (z-score),[11],-0.457
same,glycan array binding signal (z-score),[12],-0.399
same,glycan array binding signal (z-score),[13],-0.399
same,glycan array binding signal (z-score),[14],-0.333
same,glycan array binding signal (z-score),[15],-0.45
same,glycan array binding signal (z-score),[16],-0.222
same,glycan array binding signal (z-score),[17],-0.201
same,glycan array binding signal (z-score),[18],-0.301
same,glycan array binding signal (z-score),[19],-0.525
same,glycan array binding signal (z-score),[20],-0.043
same,glycan array binding signal (z-score),[21],-0.323
